# Measured values: PubChem BioAssay AID504845 (National Center for Advancing Translational Sciences (NCATS), 2011)
# Among all 390,000 compounds or so, about 150 (0.038%) were called active. The inconclusive results got no clear call from the source; some entries with a clear call stand among them for comparison. Calls follow the shape of the dose curve; as a rule, active = well fitted inhibition curve with a large enough effect; inconclusive = small, poorly fitted or top-dose-only effect; inactive = no such curve, though single readings can be large or run the other way. Potencies beside an inconclusive call are fits to weak or partial responses and may not hold up.
# Biological target: Regulator of G-protein signaling 4 (Homo sapiens) (UniProt P49798)
# UniProt P49798, sequence (P49798 whole entry, looked up): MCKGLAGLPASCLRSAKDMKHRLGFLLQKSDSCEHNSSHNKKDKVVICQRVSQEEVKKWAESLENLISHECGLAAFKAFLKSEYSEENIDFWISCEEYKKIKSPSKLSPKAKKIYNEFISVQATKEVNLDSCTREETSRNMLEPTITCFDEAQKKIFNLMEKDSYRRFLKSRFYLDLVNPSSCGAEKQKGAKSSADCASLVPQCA
# Experiment: Inhibitors of Regulator of G Protein Signaling (RGS) 4: qHTS; also: nearly all actives have a fitted effect of over 75% in size
# Details: Transcreener GDP fluorescence polarization, RGS4-accelerated GTP hydrolysis; series mostly up to 114 µM; activity change, negative = inhibition: at the top concentration
# Procedure, shortened: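 MLSMR compounds (23 nl, pin-transferred) preincubated 10 min at room temperature with a 500nM (2x) first reagent, then RGS4 at 900nM (2x) plus Transcreener GDP mix added; fluorescence polarization (620/688 nm) read before and after 90 min at 30 °C.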
# % is scaled to controls: 0 for no effect and ±100 for the full control effect; potency is read from the fitted curve at half-maximal effect; tags tell the direction and shape of the fitted curve.
Compound,Potency,"activity change, negative = inhibition"
CCn1c(SCC(=O)c2cc(OC)ccc2OC)nnc1C1CC1,"inconclusive: 10 µM [inhibitor, full curve, poor fit]",–
Cc1ccc2nc(Cl)c3cc(C(=O)N4CCCC(C)C4)sc3c2c1 (stereo not given),–,inactive: -6.91%
O=C(O)CN1C(=O)/C(=C\c2cccc(OCc3ccc(Cl)cc3Cl)c2)SC1=S,"inconclusive: 89.1 µM [inhibitor, partial curve, poor fit]",–
Cc1cccc(Oc2ccc(S(=O)(=O)N3CCCCC3)cc2NC(=O)C2=COCCO2)c1,–,inactive: 27.2%
COc1ccc(C(=O)c2no[n+]([O-])c2C(=O)c2ccc(OC)cc2)cc1,–,inactive: -10.3%
CCOC(=O)c1c(C)[nH]c(C(=O)OCC(=O)NC(C)C)c1C,–,inactive: 8.15%
COC(=O)c1cn(NC(=O)c2ccc([N+](=O)[O-])c(C)c2)c(=O)c2ccccc12,"inconclusive: 100 µM [inhibitor, single point]",–
CCN(CC)CCNC(=O)C(C)c1nn(C)c(=O)c2ccccc12 (stereo not given),"inconclusive: 100 µM [inhibitor, single point]",–
Cc1[nH]nc2c1C(c1cccnc1)N(c1ccc(Br)cc1)C2=O (stereo not given),–,inactive: 23%
O=C(Cc1ccccc1)NCc1n[nH]c(=S)n1-c1ccccc1,"inconclusive: 70.8 µM [inhibitor, partial curve, poor fit]",–
CCOC(=O)c1sc(=S)n(C)c1NC(=O)c1ccccc1,"inconclusive: 89.1 µM [inhibitor, partial curve, poor fit]",–
C/C(=N\NC(=O)c1ccccc1F)c1ccc2c(c1)Nc1ccccc1S2,"inconclusive: 89.1 µM [inhibitor, single point]",–
CN1CCC(=C2c3ccccc3CC(=O)c3sccc32)CC1,"inconclusive: 26.7 µM [inhibitor, single point]",–
Cc1ccc(/C=c2\s/c(=C(/C#N)C(=O)N3CCCC3)n(Cc3ccco3)c2=O)s1,–,inactive: -35.1%
O=C(c1cc(N2C(=O)C3C4CCC(C4)C3C2=O)ccc1Cl)N1CCN(c2ccc(F)cc2)CC1 (stereo not given),–,inactive: 18.5%
Cc1nnc(SCC(=O)NC2CCCCC2)n1N,–,inactive: 21.2%
CC(C)Oc1cccc(C(=O)C2CCCN(Cc3cnc(N4CCCC4)s3)C2)c1 (stereo not given),–,inactive: 5.65%
COc1ccccc1N1CCN(CC(O)COc2cccc3ccccc23)CC1 (stereo not given),"inconclusive: 0.238 µM [inhibitor, full curve, poor fit]",–
COc1ccc(-n2c(-c3ccc(Br)cc3)c[n+]3c2CCCCC3)cc1,"inconclusive: 50.1 µM [inhibitor, partial curve, poor fit]",–
O=C(C1CC1)N1CCN=C1SCc1ccccc1Cl,–,inactive: -0.571%
CSc1nc(NCc2ccco2)c2ccccc2n1,–,inactive: -3.01% [at 11.4 µM]
Cc1ccc(NC(=O)NCc2c(-n3cccc3)sc3c2CCCC3)c(Cl)c1,–,inactive: 26.8%

Compound,Potency,"activity change, negative = inhibition"
O=C1CCCCC1Sc1ccc(Cl)cc1[N+](=O)[O-] (stereo not given),"inconclusive: 89.1 µM [inhibitor, single point]",–
CCOC(=O)c1c(NC(=O)c2cc(-c3ccc(Br)cc3)on2)sc(C)c1C,"inconclusive: 28.2 µM [inhibitor, full curve, poor fit]",–
CCOc1ccc(C(=O)Nc2cc(-c3nc4ccccc4[nH]3)ccc2Cl)cc1[N+](=O)[O-],"inconclusive: 17.8 µM [inhibitor, full curve, poor fit]",–
CCCCCCCCSc1nnc2[nH]c(=O)cc(N)n12,"inconclusive: 79.4 µM [inhibitor, partial curve, poor fit]",–
CC1=CC(=O)N(c2cccc3c(N4C(=O)C=C(C)C4=O)cccc23)C1=O,"inconclusive: 79.4 µM [inhibitor, partial curve, poor fit]",–
O=C(CSc1oc(-c2ccco2)nc1S(=O)(=O)c1ccccc1)NCC1CCCO1 (stereo not given),"inconclusive: 56.2 µM [inhibitor, partial curve, poor fit]",–
CN(C)C(=O)c1ccc(NC(=O)c2cc(-c3ccco3)nc3ccccc23)cc1,"inconclusive: 100 µM [inhibitor, single point]",–
Cc1ccc(NC(=O)CSC(N)=O)cc1Cl,"inconclusive: 17.8 µM [inhibitor, full curve, poor fit]",–
O=C(Nc1cccc(-c2nc3ccccc3[nH]2)c1)c1cccc(NC(=O)c2ccco2)c1,"inconclusive: 17.8 µM [inhibitor, full curve, poor fit]",–
COc1cccc(-c2noc(Cn3nc(C)c([N+](=O)[O-])c3C)n2)c1,"inconclusive: 56.2 µM [inhibitor, partial curve, poor fit]",–
C=CCn1c(O)c(C2=c3ccccc3=NC2=O)c2ccccc21,"inconclusive: 50.1 µM [inhibitor, partial curve, poor fit]",–
Cc1cccc(Cc2c(C)nc3c(C(=O)N4CCN(Cc5ccc6c(c5)OCO6)CC4)cnn3c2C)c1,–,inactive: 7.03%
S=c1nc(-c2ccc(Br)cc2)oc2c1CCCC2,"inconclusive: 100 µM [inhibitor, partial curve, poor fit]",–
CCOc1ccc(-n2nc3ccc(NC(=O)COc4ccccc4C)cc3n2)cc1,–,inactive: 25%
CCn1cc2nc(SCC(=O)Nc3cccc(Cl)c3C)n(Cc3ccc(Cl)cc3)c(=O)c2n1,"inconclusive: 17.8 µM [inhibitor, full curve, poor fit]",–
COc1ccccc1N(C)S(=O)(=O)c1ccc(C(=O)Nc2ccncc2)cc1,–,inactive: -39.9%
COc1ccc(CCN(Cc2cc3ccc(C)cc3n3nnnc23)C(C)=O)cc1OC,"inconclusive: 31.6 µM [inhibitor, full curve, poor fit]",–
O=[N+]([O-])c1cccc(C=NN=Cc2ccccc2O)c1,"inconclusive: 79.4 µM [inhibitor, single point]",–
Nc1nc2c(ncn2[C@@H]2O[C@H](COP(=O)(O)OP(=O)(O)O)[C@@H](O)[C@H]2O)c(=O)[nH]1,"inconclusive: 0.597 µM [inhibitor, partial curve, poor fit]",–
CN1CCC[C@H]1CCNc1ccc2c(=O)c3ccccc3n(C)c2c1,"inconclusive: 17.8 µM [inhibitor, full curve, poor fit]",–
CCC(C)n1c(SCc2ccc(C(C)(C)C)cc2)nc2ccsc2c1=O (stereo not given),–,inactive: 21%
O=C(c1ccc(Cl)cc1)N1CCC(N2CCC(C(=O)N3CCOCC3)CC2)CC1,"inconclusive: 89.1 µM [inhibitor, single point]",–

Compound,Potency,"activity change, negative = inhibition"
CCOC(=O)c1ccc(N=c2ssnc2Cl)cc1,"inconclusive: 17.8 µM [inhibitor, full curve, poor fit]",–
C=C1C(=O)c2sccc2C(c2ccc(OC)c(OC)c2)C1COC(C)=O (stereo not given),"inconclusive: 79.4 µM [inhibitor, partial curve, poor fit]",–
Cc1ccc(C(=O)NC(=S)Nc2ccc(N3CCOCC3)cc2)cc1C,"inconclusive: 44.7 µM [inhibitor, partial curve, poor fit]",–
O=C(/C=C/c1ccccc1)c1ccc(NC2=NCCCS2)cc1,"inconclusive: 56.2 µM [inhibitor, partial curve, poor fit]",–
Cn1c(=O)c2c(n(Cc3ccccc3)c1=O)NC(=O)C2CC(=O)NCc1cccc(Cl)c1 (stereo not given),"inconclusive: 79.4 µM [inhibitor, single point]",–
CN(C)C(=O)c1c(-c2ccccc2)oc2ccc(O)cc12,–,inactive: -13.5%
COc1ccc(C(=O)NC(=S)NC(C)C)cc1Br,–,inactive: -32.3%
S=c1[nH]c(=S)c2[nH]cnc2[nH]1,"inconclusive: 89.1 µM [inhibitor, partial curve, poor fit]",–
COc1ccc(Nc2c(-c3ccc(C)o3)nc3ccc(Cl)cn23)cc1,"inconclusive: 56.2 µM [inhibitor, partial curve, poor fit]",–
COc1ccc(CN2CCCC(C(=O)N3CCCCC3)C2)c(OC)c1 (stereo not given),"inconclusive: 56.2 µM [inhibitor, partial curve, poor fit]",–
COCCn1c(=NC(=O)c2ccc(S(=O)(=O)N3CCc4ccccc4C3)cc2)sc2cc(S(N)(=O)=O)ccc21,"inconclusive: 79.4 µM [inhibitor, single point]",–
Cc1sc2ncnc(N3CCC(C(=O)Nc4cc(Cl)ccc4Cl)CC3)c2c1C,–,inactive: -18.1%
CC(C)(C)n1nc(-c2ccc(Cl)cc2)c2c(N)ncnc21,"inconclusive: 23.8 µM [inhibitor, partial curve, poor fit]",–
C/[N+]([O-])=C\CC(=O)c1ccc(-c2ccccc2)cc1,"inconclusive: 56.2 µM [inhibitor, partial curve, poor fit]",–
CS(=O)(=O)N1CCC(C(=O)Nc2ccc(Cl)c(Cl)c2)CC1,"inconclusive: 89.1 µM [inhibitor, single point]",–
O=C(CCCc1cccs1)Nc1nc2c(s1)CCCC2,"inconclusive: 56.2 µM [inhibitor, partial curve, poor fit]",–
O=C(c1ccc[nH]c1=S)N1CCN(S(=O)(=O)c2ccc(Br)cc2Cl)CC1,"inconclusive: 10 µM [inhibitor, full curve, poor fit]",–
Cc1ccccc1-n1c(SCC(=O)Nc2ccc3c(c2)OCO3)nnc1-c1ccccn1,–,inactive: -49.8%
O=C1/C(=C/c2cccnc2)CCC/C1=C\c1cccnc1,"inconclusive: 44.7 µM [inhibitor, partial curve, poor fit]",–
C=CCSC1=C(C#N)C(c2ccccc2)CC(=O)N1 (stereo not given),"inconclusive: 50.1 µM [inhibitor, partial curve, poor fit]",–
CCNS(=O)(=O)c1ccc(NC(=S)NCC2CCCO2)cc1 (stereo not given),"inconclusive: 79.4 µM [inhibitor, partial curve, poor fit]",–
